Holding throughout (assay): glycan array binding signal (z-score within array); higher = stronger binding
Common to all, as to conditions: glycan notation: IUPAC condensed, linker removed

Experiment [1] deals with Neu5Ac(a2-3)Gal(b1-3)[Neu5Ac(a2-6)]GlcNAc(b1-3)[Fuc(a1-3)[Gal(b1-4)]GlcNAc(b1-6)]Gal(b1-4)Glc. The essentials:
(§1)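 The binding signal is a Z-score computed within each array and averaged over linkers. Arrays of the same protein sequence at different concentrations or buffers were also averaged together. Data originate from 3228 arrays in the Consortium for Functional Glycomics database, kept only where the protein sequence was available.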

In experiment [2] the target is Neu5Ac(a2-3)Gal(b1-3)]Neu5Ac(a2-3)Gal(b1-4)]GlcNAc. Summed up:
as §1

For another experiment, the target named is Neu5Ac(a2-3)Gal(b1-4)Glc. The essentials: as §1
The target in experiment [3] is Neu5Ac(a2-3)Gal(b1-4)GlcNAc. Summed up:
as §1

Experiment [4] addresses Neu5Ac(a2-3)Gal(b1-4)GlcNAc(b1-2)Man. Summed up:
as §1

Experiment [5] concerns the target Neu5Ac(a2-3)Gal(b1-4)GlcNAc(b1-2)Man(a1-3)[GlcNAc(b1-4)][Neu5Ac(a2-3)Gal(b1-4)GlcNAc(b1-2)Man(a1-6)]Man(b1-4)GlcNAc(b1-4)GlcNAc. The essentials: as §1
The target in experiment [6] is Neu5Ac(a2-3)Gal(b1-4)GlcNAc(b1-2)Man(a1-3)[Neu5Ac(a2-3)Gal(b1-4)GlcNAc(b1-2)Man(a1-6)]Man(b1-4)GlcNAc(b1-4)GlcNAc. Summed up:
as §1

For experiment [7], the target named is Neu5Ac(a2-3)Gal(b1-4)GlcNAc(b1-2)Man(a1-3)[Neu5Ac(a2-3)Gal(b1-4)GlcNAc(b1-2)Man(a1-6)]Man(b1-4)GlcNAc(b1-4)[Fuc(a1-6)]GlcNAc. The essentials: as §1
Experiment [8] deals with Neu5Ac(a2-3)Gal(b1-4)GlcNAc(b1-2)Man(a1-3)[Neu5Ac(a2-6)Gal(b1-4)GlcNAc(b1-2)Man(a1-6)]Man(b1-4)GlcNAc(b1-4)GlcNAc. Summed up: as §1
In experiment [9] the target is Neu5Ac(a2-3)Gal(b1-4)GlcNAc(b1-2)[Neu5Ac(a2-3)Gal(b1-4)GlcNAc(b1-4)]Man(a1-3)[GlcNAc(b1-4)][Neu5Ac(a2-3)Gal(b1-4)GlcNAc(b1-2)[Neu5Ac(a2-3)Gal(b1-4)GlcNAc(b1-6)]Man(a1-6)]Man(b1-4)GlcNAc(b1-4)GlcNAc. Summed up: as §1
The target in experiment [10] is Neu5Ac(a2-3)Gal(b1-4)GlcNAc(b1-2)[Neu5Ac(a2-3)Gal(b1-4)GlcNAc(b1-4)]Man(a1-3)[GlcNAc(b1-4)][Neu5Ac(a2-3)Gal(b1-4)GlcNAc(b1-4)Man(a1-6)]Man(b1-4)GlcNAc(b1-4)GlcNAc. The essentials:
as §1

For experiment [11], the target named is Neu5Ac(a2-3)Gal(b1-4)GlcNAc(b1-2)[Neu5Ac(a2-3)Gal(b1-4)GlcNAc(b1-6)]Man(a1-6)[Neu5Ac(a2-3)Gal(b1-4)GlcNAc(b1-2)Man(a1-3)][GlcNAc(b1-4)]Man(b1-4)GlcNAc(b1-4)GlcNAc. The essentials: as §1
In experiment [12] the target is Neu5Ac(a2-3)Gal(b1-4)GlcNAc(b1-3)Gal. Summed up: as §1
Experiment [13] concerns the target Neu5Ac(a2-3)Gal(b1-4)GlcNAc(b1-3)Gal(b1-3)GlcNAc. Summed up: as §1
The target in experiment [14] is Neu5Ac(a2-3)Gal(b1-4)GlcNAc(b1-3)Gal(b1-4)GlcNAc. Summed up:
as §1

In experiment [15] the target is Neu5Ac(a2-3)Gal(b1-4)GlcNAc(b1-3)Gal(b1-4)GlcNAc(b1-2)Man(a1-3)[Neu5Ac(a2-3)Gal(b1-4)GlcNAc(b1-3)Gal(b1-4)GlcNAc(b1-2)Man(a1-6)]Man(b1-4)GlcNAc(b1-4)GlcNAc. The essentials:
as §1

In experiment [16] the target is Neu5Ac(a2-3)Gal(b1-4)GlcNAc(b1-3)Gal(b1-4)GlcNAc(b1-3)Gal(b1-4)GlcNAc. Summed up: as §1
For experiment [17], the target named is Neu5Ac(a2-3)Gal(b1-4)GlcNAc(b1-3)Gal(b1-4)GlcNAc(b1-3)Gal(b1-4)GlcNAc(b1-2)Man(a1-3)[Neu5Ac(a2-3)Gal(b1-4)GlcNAc(b1-3)Gal(b1-4)GlcNAc(b1-3)Gal(b1-4)GlcNAc(b1-2)Man(a1-6)]GalNAc. The essentials: as §1
Experiment [18] concerns the target Neu5Ac(a2-3)Gal(b1-4)GlcNAc(b1-3)Gal(b1-4)GlcNAc(b1-3)GalNAc. Summed up:
as §1

The target of experiment [19] is Neu5Ac(a2-3)Gal(b1-4)GlcNAc(b1-3)Gal(b1-4)GlcNAc(b1-3)[Neu5Ac(a2-3)Gal(b1-4)GlcNAc(b1-3)Gal(b1-4)GlcNAc(b1-6)]GalNAc. The essentials:
as §1

Experiment [20] has as its target Neu5Ac(a2-3)Gal(b1-4)GlcNAc(b1-3)Gal(b1-4)GlcNAc(b1-6)[Gal(b1-3)]GalNAc. The essentials: as §1
Experiment [21] has as its target Neu5Ac(a2-3)Gal(b1-4)GlcNAc(b1-3)Gal(b1-4)[Fuc(a1-3)]GlcNAc. The essentials: as §1
In experiment [22] the target is Neu5Ac(a2-3)Gal(b1-4)GlcNAc(b1-3)GalNAc. Summed up:
as §1

The other results are listed elsewhere or left out.

B1: InvD YPIII (Yersinia pseudotuberculosis), B1JSC0 (protein)
chain: MIKYFSFFKKPEPIVGILPNRQSHHILPTHIRRVAWGTLLLQLFIPLSVSFSPAIAAMKASKADTMVSYSSTEPYVLGSGETVAMVAKKYGITVDELKKINIYRTFSRPFTALTTGDEIDIPRKASPFSVDNNKDNRLSVENTLAGHAVAGATALSNGDVAKSGERMVRSAASNEFNNSAQQWLSQFGTARVQLNINDDFHLDGSAADVLIPLYDNEKSILFTQLGARNKDSRNTVNMGAGVRTFQGNWMYGANTFFDNDLTGKNRRIGVGAEAWTDYLKLSANNYFGITDWHQSRDFIDYNERPANGYDLRAEAYLPSYPQLGGKAMYEKYRGDDVALFGKDNRQKNPHAITAGVNYTPIPLVTIGAEHRAGKGGQNDSNINFQLNYRLGETWQSHIDPSAVAASRTLAGSRYDLVERNNHIVLDYQKQNLVRLSLPDSLAGDPFSQLSVTAQVTATHGLERIDWQSAELMAAGGVLKQTSKNGLEITLPEYQMNRTGGNSYILNAIAYDTQGNASSQASMLITVNAQKINIANSTLVAVPINIEANNSDTSVVTLTLKDDNNIPVTGQDVTFLSPLGTLSAMTDSGNGVYTATLTAGTVSGTTAVSSNINGSALDMTPATVTLNGNSGELSITHSMLVAAPVNIEANGSDTSVVTLTLRDSNNNPVTGQTVTFAGTLGTLGAVTEGSSGVYTATLTAGIMVGTSSITASVNSTALGVTPATVTLNGDSGNLSTTNSTLVAAPVNIEANSSDTSVVTLTLRDNNNNPVTGQTVVFTSTLGTLGNVTEQASGVYTATLTAGTVSGVASLSVSVGGNALGVTPATVTLNGDSGNLSTTNSTLVAAPVNIEANSSDTSVVTLTLRDNNNNPVTGQTVNFAGTLGTLGTVSEGSSGVYTTTLTAGTVAGVASLSVNVGGNALGVTPATVTLNGNSGNLSATNSTLVAAPVNIEANSSDTSVVTLTLRDNNNNPVTGQTVAFTSTLGTLGNVTEQASGVYTATLTAGTVSGVASLSVSVNSNALGVTPATVTLNGDSGNLSTTNSTLVAAPVNIEANSSDTSVVTLTLRDNNNNPVTGQTVAFTSTLGTLGNVTEQASGLYTATLTAGTVSGVASLSVNVGGNALGVTPATVTLNGDSGNLSATNSTLVAAPVNIEANSSDTSVVTLTLRDNNNNPVTGQTVAFTSTLGTLGNVTEQASGLYTATLTAGTVSGVASLSVNVGGTALGVTPATVTLNGDSGNLSTTNSTLVAAPVNIEANSSDTSVVTLTLRDNNNNPVTGQTVAFTSTLGTLGNVTEQASGLYTATLTAGTVSGVASLSVSVNSTALGVTPATVTLNGDSGNLSTTNSTLVAAPVNIEANSSDTSVVTLTLRDNNNNPVTGQTVAFTSTLGTLGNVTEQASGVYTATLTAGTVAGVASLSVNVGGNALGVTPATVTLNGDSGNLSTTNSTLVAAPVNIEANSSDTSVVTLTLRDNNNNPVTGQTVAFTSTLGTLGNVTEQASGVYTATLTAGTVSGVASLSVSVGSSALGVTPATVTLNGDSGNLSTTNSTLVAAPVNIEANNSDTSVVTLTLRDNNNNPVTGQTVAFTSTLGTLGNVTEQASGVYTATLTAGTVSGVASLSVSVNSNALGVTPATVTLNGDSGNLSTTNSTLVAAPVNIEANSSDTSVVTLTLRDNNNNPVTGQTVVFTSTLGTLGNVTEQASGLYTATLTAGTVSGVASLSVSVGGNALGVTGNITLAPGALDAARSILAVNKPSINADDRIGSTITFTAQDAQGNAITGLDIAFMTDLENSQIMTLVDHNDGTYTANINGTQTGIANIAVQSSGATIAGLAATMVTITPGAWNTTQATPVMTVALPITTCQSSSGVYKRYYIGIVTHELYDNYGNEISGILTYNLGAGRYTTVTSQNSSVSGSNGLTRRSNSPVSHFILTSDAYTSQAACYAERIANVNVTITVTAITDDFKTSAVNKVFILGTGSN
Take B1: the “glycan array binding signal (z-score)” value in experiment [1] is -0.009; in experiment [2], 0.034; with Neu5Ac(a2-3)Gal(b1-4)Glc, 0.185; in experiment [3], 0.187; in [4], 1.15; in [5], -0.266. Besides, the “glycan array binding signal (z-score)” value in experiment [6] was -0.142; in experiment [7], -0.311; in experiment [8], -0.158; in experiment [9], 0.508; in experiment [10], -0.203; in experiment [11], -0.322. Besides, the “glycan array binding signal (z-score)” value in experiment [12] is -0.329; in experiment [13] it was -0.129; in experiment [14], -0.005; in experiment [15], -0.107; in [16], 0.261; in experiment [17] it was 0.604. In addition, the “glycan array binding signal (z-score)” value in experiment [18] is 0.393; in experiment [19], 0.009; in experiment [20] it was -0.126; in experiment [21], -0.019; in experiment [22], -0.259.

These data come from the supplement of paper PMC8728848.
